Assay results published in patent publication US12403125B2, “Use of Ovatodiolide against SARS-CoV-2” (Peking University Shenzhen Graduate School, priority 2020, dated 2025).

Tested on: Salmonella typhimurium TA98, TA100, TA102, TA1535 and TA1537 strains
Experiment: Ames test of Salmonella reverse mutation, with bacterial toxicity test

Compound: C=C1C(=O)O[C@@H]2/C=C(\C)C[C@H]3C=C(CC/C=C(\C)CC[C@@H]12)C(=O)O3 [Ovatodiolide]
- bacterial gene mutation test result (Ames test, with and without S9): negative
- number of reverse mutation bacteria relative to negative control group (acting directly or with S9, 48 hours co-cultivation, up to 5 mg/plate (TA102) or 2.5 mg/plate (other strains)): not more than 2 times
- bacterial toxicity to TA98, TA100, TA1535 and TA1537 strains (concentration 2.5 mg/plate or less, 18 hours): no significant toxicity
- bacterial toxicity to TA102 strain (concentration 5 mg/plate or less, 18-20 hours): no significant toxicity
